Measured values published in the supplement of paper PMC8728848.
The list shows a part of the results.

Key:
Assay in all cases: glycan array binding signal (z-score within array); higher = stronger binding
Settings in all cases: glycan notation: IUPAC condensed, linker removed
[1] = biological target: Neu5Ac(a2-3)Gal(b1-3)[Neu5Ac(a2-6)]GalNAc
How it was run: (§1)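 Arrays were curated from the Consortium for Functional Glycomics database, 3228 in total, and kept only where the protein sequence was available. Binding is expressed as a within-array Z-score. This score was averaged across arrays of the same protein sequence at different concentrations or buffers and across linkers, and negative values can be read as non-binding.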

[2] = biological target: Neu5Ac(a2-3)Gal(b1-4)Glc
How it was run: as §1

[3] = biological target: Neu5Ac(a2-3)Gal(b1-4)GlcNAc
How it was run: as §1

[4] = biological target: Neu5Ac(a2-3)Gal(b1-4)GlcNAc(b1-2)Man(a1-3)[Neu5Ac(a2-3)Gal(b1-4)GlcNAc(b1-2)Man(a1-6)]Man(b1-4)GlcNAc(b1-4)GlcNAc
How it was run: as §1

[5] = biological target: Neu5Ac(a2-3)Gal(b1-4)GlcNAc(b1-3)Gal(b1-4)GlcNAc
How it was run: as §1

[6] = biological target: Neu5Ac(a2-3)Gal(b1-4)GlcNAc(b1-3)Gal(b1-4)GlcNAc(b1-3)Gal(b1-4)GlcNAc
How it was run: as §1

[7] = biological target: Neu5Ac(a2-3)Gal(b1-4)GlcNAc(b1-3)Gal(b1-4)[Fuc(a1-3)]GlcNAc
How it was run: as §1

[8] = biological target: Neu5Ac(a2-3)Gal(b1-4)GlcNAc6S
How it was run: as §1

[9] = biological target: Neu5Ac(a2-3)Gal(b1-4)[Fuc(a1-3)]GlcNAc
How it was run: as §1

[10] = biological target: Neu5Ac(a2-3)Gal(b1-4)[Fuc(a1-3)]GlcNAc(b1-3)Gal
How it was run: as §1

[11] = biological target: Neu5Ac(a2-3)Gal(b1-4)[Fuc(a1-3)]GlcNAc(b1-3)Gal(b1-4)GlcNAc
How it was run: as §1

[12] = biological target: Neu5Ac(a2-3)Gal(b1-4)[Fuc(a1-3)]GlcNAc(b1-3)Gal(b1-4)[Fuc(a1-3)]GlcNAc(b1-3)Gal(b1-4)[Fuc(a1-3)]GlcNAc
How it was run: as §1

[13] = biological target: Neu5Ac(a2-3)Gal(b1-4)[Fuc(a1-3)]GlcNAc6S
How it was run: as §1

[14] = biological target: Neu5Ac(a2-3)Gal6S(b1-4)GlcNAc
How it was run: as §1

[15] = biological target: Neu5Ac(a2-3)Gal6S(b1-4)[Fuc(a1-3)]GlcNAc
How it was run: as §1

[16] = biological target: Neu5Ac(a2-3)GalNAc
How it was run: as §1

[17] = biological target: Neu5Ac(a2-3)GalNAc(b1-4)GlcNAc
How it was run: as §1

[18] = biological target: Neu5Ac(a2-3)[GalNAc(b1-4)]Gal(b1-4)Glc
How it was run: as §1

[19] = biological target: Neu5Ac(a2-3)[GalNAc(b1-4)]Gal(b1-4)GlcNAc
How it was run: as §1

[20] = biological target: Neu5Ac(a2-3)[Neu5Ac(a2-6)]GalNAc
How it was run: as §1

[21] = biological target: Neu5Ac(a2-6)Gal
How it was run: as §1

[22] = biological target: Neu5Ac(a2-6)Gal(b1-4)Glc
How it was run: as §1

[23] = biological target: Neu5Ac(a2-6)Gal(b1-4)GlcNAc
How it was run: as §1

[24] = biological target: Neu5Ac(a2-6)Gal(b1-4)GlcNAc(b1-3)Gal(b1-4)GlcNAc
How it was run: as §1

[25] = biological target: Neu5Ac(a2-6)Gal(b1-4)GlcNAc(b1-3)Gal(b1-4)[Fuc(a1-3)]GlcNAc(b1-3)Gal(b1-4)[Fuc(a1-3)]GlcNAc
How it was run: as §1

[26] = biological target: Neu5Ac(a2-6)Gal(b1-4)GlcNAc6S
How it was run: as §1

[27] = biological target: Neu5Ac(a2-6)GalNAc
How it was run: as §1

[28] = biological target: Neu5Ac(a2-6)GalNAc(b1-4)GlcNAc
How it was run: as §1

[29] = biological target: Neu5Ac(a2-8)Neu5Ac
How it was run: as §1

[30] = biological target: Neu5Ac(a2-8)Neu5Ac(a2-3)Gal(b1-4)Glc
How it was run: as §1

[31] = biological target: Neu5Ac(a2-8)Neu5Ac(a2-3)[GalNAc(b1-4)]Gal(b1-4)Glc
How it was run: as §1

[32] = biological target: Neu5Ac(a2-8)Neu5Ac(a2-8)Neu5Ac
How it was run: as §1

[33] = biological target: Neu5Ac(a2-8)Neu5Ac(a2-8)Neu5Ac(a2-3)Gal(b1-4)Glc
How it was run: as §1

[34] = biological target: Neu5Ac(a2-8)Neu5Ac(a2-8)Neu5Ac(a2-3)[GalNAc(b1-4)]Gal(b1-4)Glc
How it was run: as §1

[35] = biological target: Neu5Ac(a2-8)Neu5Ac(a2-8)Neu5Ac(a2-8)Neu5Ac(a2-3)[GalNAc(b1-4)]Gal(b1-4)Glc
How it was run: as §1

[36] = biological target: Neu5Ac(b1-6)GalNAc
How it was run: as §1

[37] = biological target: Neu5Ac(b2-6)Gal(b1-4)GlcNAc
How it was run: as §1

[38] = biological target: Neu5Ac9Ac(a2-6)Gal(b1-4)GlcNAc
How it was run: as §1

[39] = biological target: Neu5Gc(a2-3)Gal(b1-3)GlcNAc
How it was run: as §1

[40] = biological target: Neu5Gc(a2-3)Gal(b1-3)[Fuc(a1-4)]GlcNAc
How it was run: as §1

[41] = biological target: Neu5Gc(a2-3)Gal(b1-4)Glc
How it was run: as §1

[42] = biological target: Neu5Gc(a2-3)Gal(b1-4)GlcNAc
How it was run: as §1

[43] = biological target: Neu5Gc(a2-3)Gal(b1-4)[Fuc(a1-3)]GlcNAc
How it was run: as §1

[44] = biological target: Neu5Gc(a2-6)Gal(b1-4)GlcNAc
How it was run: as §1

[45] = biological target: Neu5Gc(a2-6)GalNAc
How it was run: as §1

B1: MIG/CXCL9 (Homo sapiens) (protein)
chain: TPVVRKGRCSCISTNQGTIHLQSLKDLKQFAPSPSCEKIEIIIATLKNGVQTCLNPDSADVKELIKKTEKQVSQKKKQKNGKKHQKKKVLKVRKSQRSRQKKTT
[1]
  glycan array binding signal (z-score): -0.3
[2]
  glycan array binding signal (z-score): 0.217
[3]
  glycan array binding signal (z-score): -0.152
[4]
  glycan array binding signal (z-score): 0.04
[5]
  glycan array binding signal (z-score): -0.141
[6]
  glycan array binding signal (z-score): -0.264
[7]
  glycan array binding signal (z-score): -0.042
[8]
  glycan array binding signal (z-score): 0.32
[9]
  glycan array binding signal (z-score): -0.196
[10]
  glycan array binding signal (z-score): -0.37
[11]
  glycan array binding signal (z-score): -0.11
[12]
  glycan array binding signal (z-score): -0.34
[13]
  glycan array binding signal (z-score): 0.515
[14]
  glycan array binding signal (z-score): -0.121
[15]
  glycan array binding signal (z-score): -0.015
[16]
  glycan array binding signal (z-score): -0.254
[17]
  glycan array binding signal (z-score): -0.293
[18]
  glycan array binding signal (z-score): -0.337
[19]
  glycan array binding signal (z-score): -0.015
[20]
  glycan array binding signal (z-score): 0.082
[21]
  glycan array binding signal (z-score): -0.181
[22]
  glycan array binding signal (z-score): -0.237
[23]
  glycan array binding signal (z-score): -0.194
[24]
  glycan array binding signal (z-score): -0.254
[25]
  glycan array binding signal (z-score): -0.183
[26]
  glycan array binding signal (z-score): 0.527
[27]
  glycan array binding signal (z-score): -0.219
[28]
  glycan array binding signal (z-score): -0.161
[29]
  glycan array binding signal (z-score): -0.309
[30]
  glycan array binding signal (z-score): -0.233
[31]
  glycan array binding signal (z-score): -0.12
[32]
  glycan array binding signal (z-score): -0.218
[33]
  glycan array binding signal (z-score): -0.321
[34]
  glycan array binding signal (z-score): -0.353
[35]
  glycan array binding signal (z-score): -0.245
[36]
  glycan array binding signal (z-score): -0.402
[37]
  glycan array binding signal (z-score): -0.209
[38]
  glycan array binding signal (z-score): -0.239
[39]
  glycan array binding signal (z-score): -0.05
[40]
  glycan array binding signal (z-score): -0.4
[41]
  glycan array binding signal (z-score): -0.347
[42]
  glycan array binding signal (z-score): -0.249
[43]
  glycan array binding signal (z-score): -0.288
[44]
  glycan array binding signal (z-score): -0.309
[45]
  glycan array binding signal (z-score): -0.306
